From PMC4336329 (PLoS ONE, 2015)
About 14,000 (4.5%) of roughly 310,000 compounds showed an effect of 50% or more. Effects have a minus sign here. The list shows a part of the results.

Target: human ether-à-go-go-related gene (hERG) potassium channel (human, UniProt Q12809)
Assay: primary screen, population patch clamp on CHO cells stably expressing hERG
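Note: peak tail current of the secondary pulse compared with the same well before compound.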

Chain of human ether-à-go-go-related gene (hERG) potassium channel (Q12809 whole entry, looked up): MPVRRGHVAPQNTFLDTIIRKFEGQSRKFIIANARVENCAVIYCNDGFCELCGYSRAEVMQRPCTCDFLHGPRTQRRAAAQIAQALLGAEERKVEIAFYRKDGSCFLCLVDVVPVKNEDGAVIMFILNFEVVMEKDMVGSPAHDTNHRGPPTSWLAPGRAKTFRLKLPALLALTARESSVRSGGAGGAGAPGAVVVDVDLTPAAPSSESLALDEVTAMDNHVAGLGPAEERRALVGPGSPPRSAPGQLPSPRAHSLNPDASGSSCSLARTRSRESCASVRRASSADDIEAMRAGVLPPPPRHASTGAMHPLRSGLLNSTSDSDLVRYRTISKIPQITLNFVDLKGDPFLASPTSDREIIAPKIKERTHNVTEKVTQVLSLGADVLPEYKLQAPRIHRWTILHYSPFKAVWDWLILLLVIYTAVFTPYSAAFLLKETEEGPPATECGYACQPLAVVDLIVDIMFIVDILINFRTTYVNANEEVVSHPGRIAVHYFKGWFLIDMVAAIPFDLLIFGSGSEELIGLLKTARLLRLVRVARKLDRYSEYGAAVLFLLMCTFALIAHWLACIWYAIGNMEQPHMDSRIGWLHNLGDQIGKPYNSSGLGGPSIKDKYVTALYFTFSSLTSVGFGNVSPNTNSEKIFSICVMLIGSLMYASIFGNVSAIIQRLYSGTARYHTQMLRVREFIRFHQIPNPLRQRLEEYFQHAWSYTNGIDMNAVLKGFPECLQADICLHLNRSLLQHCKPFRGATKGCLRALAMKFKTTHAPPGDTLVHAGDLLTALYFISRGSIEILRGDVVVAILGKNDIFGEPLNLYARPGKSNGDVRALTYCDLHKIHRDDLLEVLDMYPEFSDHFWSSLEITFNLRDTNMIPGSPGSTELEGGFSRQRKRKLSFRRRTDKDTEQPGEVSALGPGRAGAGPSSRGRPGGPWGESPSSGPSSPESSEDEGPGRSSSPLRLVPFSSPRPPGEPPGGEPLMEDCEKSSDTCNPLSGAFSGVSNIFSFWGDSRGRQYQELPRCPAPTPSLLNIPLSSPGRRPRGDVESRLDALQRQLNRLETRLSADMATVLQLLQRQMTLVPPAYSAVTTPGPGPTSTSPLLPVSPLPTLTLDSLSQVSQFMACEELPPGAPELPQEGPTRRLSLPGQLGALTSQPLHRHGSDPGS

| Structure (SMILES) | hERG current change (%, negative = inhibition) at 10uM [%] |
| --- | --- |
| CCC1C(=O)NCCN1C(=O)c1ccc2nc(Cc3ccc(OC)cc3)oc2c1 (stereo not shown) | 12.5 |
| CCc1cccc(NC2c3ccccc3C(=O)N2c2cccnc2)c1 (stereo not shown) | -10.2 |
| CC(=NCCC1=CCCCC1)c1c(O)n(-c2ccccc2)c(=O)[nH]c1=O | 4.58 |
| O=C(N/C(=C\c1ccc(Cl)cc1)C(=O)N1CCCCC1)c1ccco1 | 11.8 |
| CCC(C(=O)NCCC(C)C)N(Cc1ccccc1Cl)C(=O)c1snc(C(N)=O)c1N (stereo not shown) | 0.692 |
| C=CCNCc1cccn1-c1sc2c(c1C#N)CCCC2 | -28.6 |
| O=C(CCCC(=O)OCC(=O)c1ccc(F)cc1)Nc1cc(C(F)(F)F)ccc1Cl | 8.25 |
| CNC(=O)CC1C(=O)N(c2ccc(Cl)cc2)C(=S)N1NC(=O)c1cccc(F)c1 (stereo not shown) | 12.5 |
| COc1ccc(-c2nn(CCC#N)cc2/C=N/O)cc1 | 7.01 |
| COC(=O)CSc1nc(SCc2ccc(C)cc2)nc2c1CCCC2 | 2.84 |
| Cn1c(N)c(C(=O)Nc2c(Cl)cccc2Cl)sc1=S | 12.8 |
| O=C(NC(Cc1ccccc1)C(=O)NCCc1ccccn1)c1ccccc1 (stereo not shown) | 6.5 |
| COc1ccc(CCN(C)C2CCCN(S(=O)(=O)c3ccc(C)cc3)C2)cc1OC (stereo not shown) | -78 |
| C/C(=N/OC(=O)c1ccc(C)cc1)c1cccs1 | 0.459 |
| CC(C)CN(C(=O)CC(C)c1ccccc1)c1c(N)n(Cc2ccccc2)c(=O)[nH]c1=O (stereo not shown) | 4.12 |
| CSc1nc(NC(C)C)nc(N2CCOCC2)n1 | -4.81 |
| CCNC(=O)COC(=O)c1cc(-c2ccccc2)nn1-c1ccccc1 | -61.8 |
| Cc1ccc(/C=N/Nc2cccc(C(=O)O)c2)s1 | 35.7 |
| C(=N\Nc1ccccc1)/c1nc2ccccc2s1 | 3.75 |
| Cl.N=c1sccn1Cc1ccc(Cl)cc1Cl | -24.2 |
| Cc1ccc(OCCC(=O)OCC(=O)c2c(N)n(C)c(=O)n(C)c2=O)cc1 | -58.3 |
| COCCn1c(SCC(=O)Nc2cc(C)cc(C)c2)nc2ccccc2c1=O | -43.2 |

| Structure (SMILES) | hERG current change (%, negative = inhibition) at 10uM [%] |
| --- | --- |
| Cc1cccc(-n2c(O)c(C=Nc3ccc(S(N)(=O)=O)cc3)c(=O)[nH]c2=O)c1 | 33 |
| Cc1sc2nc(-c3cccnc3)nc(Cl)c2c1-c1ccccc1 | 1.93 |
| CCS(=O)(=O)N1Cc2ccccc2CC1C(=O)Nc1nc2ccccc2[nH]1 (stereo not shown) | -29.3 |
| C/C(CC(=O)Nc1ccc(C)c(Cl)c1)=N\NC(=O)c1ccco1 | -24.1 |
| Cc1c(NS(=O)(=O)c2ccc(Cl)c(C(=O)OCC(=O)NCc3ccco3)c2)c(=O)n(-c2ccccc2)n1C | -51.9 |
| O=c1ccc2ccc(Oc3ccc([N+](=O)[O-])cc3[N+](=O)[O-])cc2o1 | -40.3 |
| Cc1cc(C(=O)N/N=C\c2cc(C(C)(C)C)c(O)c(C(C)(C)C)c2)n[nH]1 | 2.28 |
| CCc1nnc(NC(=O)COc2ccc([N+](=O)[O-])cc2)s1 | 11.2 |
| Cc1c(N)cc[n+](CC(=O)c2ccccc2)c1C.[Br-] | 16.4 |
| O=C(NC1CCCCC1)c1ccc2c(c1)S(=O)(=O)c1ccccc1C2=O | 3.57 |
| CCCCCCC(=O)N(O)C1CC(=O)N(c2ccc(Cl)cc2)C1=O (stereo not shown) | 4.46 |
| Br.N=c1n(CC(=O)c2ccc([N+](=O)[O-])cc2)c2ccccc2n1Cc1ccccc1 | -70.1 |
| Cc1ccc(-c2cc(C(F)F)n3ncc(C(=O)N4CCC5(CC4)OCCO5)c3n2)cc1 | -18.9 |
| COc1ccc(S(=O)(=O)N(C)CC(=O)NCCN2CCOCC2)cc1C | 23.8 |
| COc1ccc(C(=O)Nc2ccc(OC)c(OC)c2)cc1 | 3.98 |
| COc1ccc(CCNC(=O)CN2C(=O)NC(Cc3c[nH]c4ccccc34)C2=O)cc1 (stereo not shown) | -0.343 |
| CCc1ccc(NCc2nc(-c3ccccc3)no2)cc1 | -14.6 |
| O=C(CN1C(=O)C2CCCCC2C1=O)Nc1nc(-c2ccc(F)cc2)cs1 (stereo not shown) | 5.21 |
| CCC1(CC)NC(=O)N(CC(=O)N2N=C(c3ccc(Cl)cc3)CC2c2ccco2)C1=O (stereo not shown) | 12 |
| O=C(Cn1cnnn1)Nc1cccc([N+](=O)[O-])c1 | -1.13 |
| Cc1ccc(C(=O)c2c3ccc(C(F)(F)F)cc3[n+]([O-])n2CCCC(N)=O)cc1 | -62.9 |
| COc1ccc(-c2noc(CCC(=O)NCCCN3CCN(c4ccc(F)cc4)CC3)n2)cc1 | -67.4 |

| Structure (SMILES) | hERG current change (%, negative = inhibition) at 10uM [%] |
| --- | --- |
| O=C(N/N=C/c1cc(Br)c(Br)o1)C(O)c1ccccc1 (stereo not shown) | 2.58 |
| COc1ccc(S(=O)(=O)N(CC(=O)N2CCCC2)Cc2ccccc2)cc1 | -21.8 |
| CCNc1ccc(C(=O)OCC)cc1NC(=O)c1cccc(S(=O)(=O)N2CCOCC2)c1 | -3.02 |
| O=C(CSc1ccccc1C(=O)O)NC12CC3CC(CC(C3)C1)C2 | 16.6 |
| CS(=O)(=O)N(CC(=O)N1CCN(c2cccc(Cl)c2)CC1)c1ccccc1 | -2.44 |
| CC(=O)c1sc(NC(=O)CCCOc2ccccc2C)nc1C | 20.8 |
| Cc1nc(CSc2nnc3scc(-c4ccc(Cl)cc4)n23)cs1 | -1.39 |
| CCOC(=O)c1[nH]c2ccccc2c1NC(=S)Nc1cccc(C)c1 | 9.82 |
| CC(C)Oc1ccc(CNC(=O)Cn2c(=O)c3cccn3c3cccnc32)cc1 | -9.4 |
| COc1cc(Cl)c(C)cc1NC(=O)c1ccc2c(c1)OCO2 | 19 |
| COc1ccc(Cn2cnc3c([N+](=O)[O-])c(C)c(C)cc32)cc1 | -31.4 |
| CCOC(=O)[C@H]1[C@H]2COc3cc(OC)ccc3[C@@H]2N2C(=O)c3ccc(F)cc3NC(=O)[C@@]12C | 5.46 |
| O=C(COc1ccccc1)N1c2ccccc2Sc2ccccc21 | 5.54 |
| COc1ccc2c(c1)CC1(CN2C)C(=O)NC(=O)N(CCc2ccccc2)C1=O (stereo not shown) | -13.1 |
| CCCNc1cc(C)c(C#N)c2nc3ccccc3n12 | 10.6 |
| CCOc1ccccc1NC(=O)C1CCN(c2ccc(S(=O)(=O)N3CCCC3)cc2)CC1 | -6.65 |
| CCN(c1ccccc1)S(=O)(=O)c1ccc(C(=O)NCCc2ccc(S(N)(=O)=O)cc2)cc1 | 5.49 |
| O=C(CCS(=O)(=O)c1ccc(F)cc1)N1CCN(c2ccccc2)CC1 | -23.2 |
| CN1CCCN(C(=O)c2ccc(Cl)cc2)CC1 | 5.68 |
| Cc1ccc(-c2csc3ncnc(Sc4nnc(CN5CCCCCC5=O)o4)c23)cc1 | -47.5 |
| COc1ccc(-c2cc(C(=O)N3CCc4ccccc4C3)no2)cc1 | -0.668 |
| Cc1ccccc1N1CCN(C2CCCN(C(=O)c3cc[n+]([O-])cc3)C2)CC1 (stereo not shown) | 9.87 |

| Structure (SMILES) | hERG current change (%, negative = inhibition) at 10uM [%] |
| --- | --- |
| O=C(NC(C(=O)N/N=C/c1cc([N+](=O)[O-])ccc1O)c1n[nH]c(=O)c2ccccc12)c1ccccc1 (stereo not shown) | 24.2 |
| O=C(NCCNS(=O)(=O)c1ccc(C(F)(F)F)cc1)N1CCOCC1 | 6.84 |
| O=C(c1ccco1)N1CCN(Cc2nc(-c3cccs3)no2)CC1 | -38.1 |
| COc1ccc(C(=O)N/C(=C/c2cccs2)C(=O)NC(C)(C)C)cc1OC | 5.42 |
| CN1CCC(=O)N([C@H](CSc2ccccc2)c2ccccc2)CC1 | -64.9 |
| CCOc1nc(-c2ccccc2)ccc1-c1noc(-c2cccs2)n1 | 7.09 |
| CCn1c(C)nc2cc(S(=O)(=O)C(F)(F)C(F)C(F)(F)F)ccc21 (stereo not shown) | -8.09 |
| COc1ccc2nc(/C=N/NC(=O)CCNC(=O)OC(C)(C)C)ccc2c1 | -8.34 |
| COc1cc(C2N(C)C(=O)c3ccccc3N2C)ccc1O (stereo not shown) | 13.2 |
| N=C1S/C(=C\c2ccc(O)cc2)C(=O)N1c1ccc(F)cc1 | 23.3 |
| Cn1c(SCC(=O)NC(=O)c2cccc([N+](=O)[O-])c2)nnc1-c1ccc(F)cc1 | -23.3 |
| CC1=NCCN1S(=O)(=O)c1ccccc1[N+](=O)[O-] | 24.2 |
| COC(=O)c1sccc1NC(=O)Nc1ccc(OC)cc1OC | -20.3 |
| COc1ccc(NC(=O)c2ccccn2)cc1S(=O)(=O)N1CCOCC1 | 8.52 |
| CCCC(=O)O[C@]1(C(=O)CO)CC[C@H]2[C@@H]3CCC4=CC(=O)CC[C@]4(C)[C@H]3[C@@H](O)C[C@@]21C | 0.491 |
| COC(=O)c1[nH]c2ccccc2c1NS(=O)(=O)c1ccc(OC)cc1OC | -15.8 |
| O=C(Nc1ccc(S(=O)(=O)NCc2ccccc2)cc1)C1CCCCC1 | 17.7 |
| CC(C)(C)C(=O)Nc1ncc(C(F)(F)F)cc1Cl | 0.581 |
| Cc1cccc(OCCC(=O)Nc2ccc(N3CCOCC3)cc2N2CCOCC2)c1 | -19.7 |
